Reference: publication PMC9911399, “Two distinct binding modes provide the RNA-binding protein RbFox with extraordinary sequence specificity”
Positions count from the first letter of the chain named. The list shows a part of the results.

B1: GUGCGAC (DNA:RNA)
RNA: GGGAGACCGGAAUUCAGAUUGUCCGUGCGACUUAAAUCCCGUCGUAGCCACCA
DNA 1: CAATCTGAATTCCGGTCTCCC
DNA 2: TGGTGGCTACGACGGGATT
B2: GUUGGUU (DNA:RNA)
RNA: B1 RNA with G27U, C28G, A30U, C31U
DNA 1: CAATCTGAATTCCGGTCTCCC
DNA 2: TGGTGGCTACGACGGGATT
B3: GCCCCGU (DNA:RNA)
RNA: B1 RNA with U26C, G27C, G29C, A30G, C31U
DNA 1: CAATCTGAATTCCGGTCTCCC
DNA 2: TGGTGGCTACGACGGGATT
B4: AAGAUCG (DNA:RNA)
RNA: B1 RNA with G25A, U26A, C28A, G29U, A30C, C31G
DNA 1: CAATCTGAATTCCGGTCTCCC
DNA 2: TGGTGGCTACGACGGGATT
B5: UUCUGUG (DNA:RNA)
RNA: B1 RNA with G25U, G27C, C28U, A30U, C31G
DNA 1: CAATCTGAATTCCGGTCTCCC
DNA 2: TGGTGGCTACGACGGGATT
B6: CCGUACU (DNA:RNA)
RNA: B1 RNA with G25C, U26C, C28U, G29A, A30C, C31U
DNA 1: CAATCTGAATTCCGGTCTCCC
DNA 2: TGGTGGCTACGACGGGATT
B7: AUGCUAA (DNA:RNA)
RNA: B1 RNA with G25A, G29U, C31A
DNA 1: CAATCTGAATTCCGGTCTCCC
DNA 2: TGGTGGCTACGACGGGATT
B8: UACAGUU (DNA:RNA)
RNA: B1 RNA with G25U, U26A, G27C, C28A, A30U, C31U
DNA 1: CAATCTGAATTCCGGTCTCCC
DNA 2: TGGTGGCTACGACGGGATT
B9: CGUCAUU (DNA:RNA)
RNA: B1 RNA with G25C, U26G, G27U, G29A, A30U, C31U
DNA 1: CAATCTGAATTCCGGTCTCCC
DNA 2: TGGTGGCTACGACGGGATT
B10: AGUCUCU (DNA:RNA)
RNA: B1 RNA with G25A, U26G, G27U, G29U, A30C, C31U
DNA 1: CAATCTGAATTCCGGTCTCCC
DNA 2: TGGTGGCTACGACGGGATT
B11: CUCGAGG (DNA:RNA)
RNA: B1 RNA with G25C, G27C, C28G, G29A, A30G, C31G
DNA 1: CAATCTGAATTCCGGTCTCCC
DNA 2: TGGTGGCTACGACGGGATT
B12: UUCCGUG (DNA:RNA)
RNA: B1 RNA with G25U, G27C, A30U, C31G
DNA 1: CAATCTGAATTCCGGTCTCCC
DNA 2: TGGTGGCTACGACGGGATT
B13: GGUUAGA (DNA:RNA)
RNA: B1 RNA with U26G, G27U, C28U, G29A, A30G, C31A
DNA 1: CAATCTGAATTCCGGTCTCCC
DNA 2: TGGTGGCTACGACGGGATT
B14: GCCCGUG (DNA:RNA)
RNA: B1 RNA with U26C, G27C, A30U, C31G
DNA 1: CAATCTGAATTCCGGTCTCCC
DNA 2: TGGTGGCTACGACGGGATT
B15: CGAGAAC (DNA:RNA)
RNA: B1 RNA with G25C, U26G, G27A, C28G, G29A
DNA 1: CAATCTGAATTCCGGTCTCCC
DNA 2: TGGTGGCTACGACGGGATT
B16: AGCUUUC (DNA:RNA)
RNA: B1 RNA with G25A, U26G, G27C, C28U, G29U, A30U
DNA 1: CAATCTGAATTCCGGTCTCCC
DNA 2: TGGTGGCTACGACGGGATT
B17: CUUGCAC (DNA:RNA)
RNA: B1 RNA with G25C, G27U, C28G, G29C
DNA 1: CAATCTGAATTCCGGTCTCCC
DNA 2: TGGTGGCTACGACGGGATT
B18: GUUUUUG (DNA:RNA)
RNA: B1 RNA with G27U, C28U, G29U, A30U, C31G
DNA 1: CAATCTGAATTCCGGTCTCCC
DNA 2: TGGTGGCTACGACGGGATT
B19: AGGAUCA (DNA:RNA)
RNA: B1 RNA with G25A, U26G, C28A, G29U, A30C, C31A
DNA 1: CAATCTGAATTCCGGTCTCCC
DNA 2: TGGTGGCTACGACGGGATT
B20: GCGGAUC (DNA:RNA)
RNA: B1 RNA with U26C, C28G, G29A, A30U
DNA 1: CAATCTGAATTCCGGTCTCCC
DNA 2: TGGTGGCTACGACGGGATT
B21: GUCGGGA (DNA:RNA)
RNA: B1 RNA with G27C, C28G, A30G, C31A
DNA 1: CAATCTGAATTCCGGTCTCCC
DNA 2: TGGTGGCTACGACGGGATT
B22: CUAAGGU (DNA:RNA)
RNA: B1 RNA with G25C, G27A, C28A, A30G, C31U
DNA 1: CAATCTGAATTCCGGTCTCCC
DNA 2: TGGTGGCTACGACGGGATT
B23: UCUAACG (DNA:RNA)
RNA: GGGAGACCGGAAUUCAGAUUGUCCUCUAACGUUAAAUCCCGUCGUAGCCACCA
DNA 1: CAATCTGAATTCCGGTCTCCC
DNA 2: TGGTGGCTACGACGGGATT
B24: CGUCGCG (DNA:RNA)
RNA: B23 RNA with U25C, C26G, A28C, A29G
DNA 1: CAATCTGAATTCCGGTCTCCC
DNA 2: TGGTGGCTACGACGGGATT
B25: CAGCUAC (DNA:RNA)
RNA: B1 RNA with G25C, U26A, G29U
DNA 1: CAATCTGAATTCCGGTCTCCC
DNA 2: TGGTGGCTACGACGGGATT
B26: CGCGUAU (DNA:RNA)
RNA: B1 RNA with G25C, U26G, G27C, C28G, G29U, C31U
DNA 1: CAATCTGAATTCCGGTCTCCC
DNA 2: TGGTGGCTACGACGGGATT
B27: UGUCGUA (DNA:RNA)
RNA: B1 RNA with G25U, U26G, G27U, A30U, C31A
DNA 1: CAATCTGAATTCCGGTCTCCC
DNA 2: TGGTGGCTACGACGGGATT
B28: GUGGAUC (DNA:RNA)
RNA: B1 RNA with C28G, G29A, A30U
DNA 1: CAATCTGAATTCCGGTCTCCC
DNA 2: TGGTGGCTACGACGGGATT
B29: CCGUCUU (DNA:RNA)
RNA: B1 RNA with G25C, U26C, C28U, G29C, A30U, C31U
DNA 1: CAATCTGAATTCCGGTCTCCC
DNA 2: TGGTGGCTACGACGGGATT
B30: AGUUAUA (DNA:RNA)
RNA: B23 RNA with U25A, C26G, A28U, C30U, G31A
DNA 1: CAATCTGAATTCCGGTCTCCC
DNA 2: TGGTGGCTACGACGGGATT
B31: UGACAAA (DNA:RNA)
RNA: B1 RNA with G25U, U26G, G27A, G29A, C31A
DNA 1: CAATCTGAATTCCGGTCTCCC
DNA 2: TGGTGGCTACGACGGGATT

Target: T1, RBFOX1 RRM RbFoxmut (Fox-RRM*) (Homo sapiens, UniProt Q9NWB1 109-208, R118D;E147R;N151S;E152T)
T1 sequence: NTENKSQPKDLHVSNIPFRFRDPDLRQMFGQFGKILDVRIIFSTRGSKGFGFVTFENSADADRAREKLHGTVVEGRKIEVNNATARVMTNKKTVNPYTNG
Experiment: EMSA; HiTS-Eq, 1 nM pool, 10 min; buffer printed only for the single-RNA assays: 10 mM Tris pH 7.5, 150 mM NaCl, 3.4 mM EDTA, 0.001% NP-40, 30 C
Settings: tags: His6 N-terminal (pET28a); label: 5' 32P
Summary of the method: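 Purified RbFox RRM, wild type or mutant, was incubated for 10 min in 50 µL with 1 nM of a 5′-radiolabelled RNA pool carrying 7 randomized nucleotides, whose flanks were annealed to DNA oligonucleotides, over a series of increasing protein concentrations. Unbound RNA was resolved on 8% native PAGE, cut out, reverse-transcribed, barcoded by PCR and sequenced on an Illumina HiSeq 2500. Relative association constants were derived from changes in read counts for each RNA species versus the control reaction and normalised to the cognate motif.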

Row | Binder | binding signal
1 | B1 | 0.0808 KA relative to UGCAUGU
2 | B2 | 0.115 KA relative to UGCAUGU
3 | B3 | 0.1 KA relative to UGCAUGU
4 | B4 | 0.14 KA relative to UGCAUGU
5 | B5 | 0.133 KA relative to UGCAUGU
6 | B6 | 0.085 KA relative to UGCAUGU
7 | B7 | 0.166 KA relative to UGCAUGU
8 | B8 | 0.0607 KA relative to UGCAUGU
9 | B9 | 0.0884 KA relative to UGCAUGU
10 | B10 | 0.0783 KA relative to UGCAUGU
11 | B11 | 0.0887 KA relative to UGCAUGU
12 | B12 | 0.0971 KA relative to UGCAUGU
13 | B13 | 0.087 KA relative to UGCAUGU
14 | B14 | 0.131 KA relative to UGCAUGU
15 | B15 | 0.0857 KA relative to UGCAUGU
16 | B16 | 0.0646 KA relative to UGCAUGU

Row | Binder | binding signal
17 | B17 | 0.0974 KA relative to UGCAUGU
18 | B18 | 0.114 KA relative to UGCAUGU
19 | B19 | 0.153 KA relative to UGCAUGU
20 | B20 | 0.136 KA relative to UGCAUGU
21 | B21 | 0.112 KA relative to UGCAUGU
22 | B22 | 0.0965 KA relative to UGCAUGU
23 | B23 | 0.107 KA relative to UGCAUGU
24 | B24 | 0.116 KA relative to UGCAUGU
25 | B25 | 0.108 KA relative to UGCAUGU
26 | B26 | 0.121 KA relative to UGCAUGU
27 | B27 | 0.13 KA relative to UGCAUGU
28 | B28 | 0.357 KA relative to UGCAUGU
29 | B29 | 0.0819 KA relative to UGCAUGU
30 | B30 | 0.117 KA relative to UGCAUGU
31 | B31 | 0.0618 KA relative to UGCAUGU
